The full ranking holds about 81,000 sequences; the median of “one-hybrid fitness for binding parS DNA” is about -0.17, and the highest 2% start at about 0.51. The list shows a part of the results.

Results on 97 variants are retold here after a collection of fitness landscapes (doi:10.1016/j.celrep.2020.107928).

B1: Caulobacter ParB omega fusion; a variant is named by its letters at X, in order, B8GW30 (parent)
chain: MESVVVGEPGMSEGRRGLGRGLSALLGEVDAAPAQAPGEQLGGSREAPIEILQRNPDQPRRTFREEDLEDLSNSIREKGVLQPILVRPSPDTAGEYQIVAGERAWRAAQRAGLKTVPIMVRELDDLAVLEIGIIENVQRADLNVLEEALSYKVLMEKFERTQENIAQTIGKSXSHVANXMRLLXLPDEVQSYLVSGELTAXHARAIAAAADPVALAKQIIEGGLSVRETEALARKAPNLSAGKSKGGRPPRVKDTDTQALESDLSSVLGLDVSIDHRGSTGTLTITYATLEQLDDLCNRLTRGI

In the assay the parent is B1. Description: one-hybrid fitness for binding parS DNA (scaled: cognate 1, non-cognate 0); higher = stronger binding. Particulars: with parS DNA site. In outline:
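The reporter was HIS3, with the binding site 19 bp from the promoter, in E. coli USO used for bacterial one-hybrid selection of Caulobacter ParB libraries with four specificity codons randomised. Growth was on M9 lacking histidine, with 0.1 mM IPTG and 5 mM 3-AT, for 48 hours at 37°C. Illumina sequencing covered plasmids before and after selection; three replicate libraries were pooled and variants with under 10 reads dropped. A fitness score is the log change in variant-to-wild-type read ratio, rescaled to the cognate and non-cognate references.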
With PPCM, the “one-hybrid fitness for binding parS DNA” value was ≤ 0.2. The figure for NSMD is ≤ 0.2; for PDRA it is ≤ 0.2; for RARR it is ≤ 0.2. Next, SYIR: ≤ 0.2. TWTN: the “one-hybrid fitness for binding parS DNA” value is ≤ 0.2.

As for PEKC, the “one-hybrid fitness for binding parS DNA” value was ≤ 0.2. For PDQD, the “one-hybrid fitness for binding parS DNA” value was ≤ 0.2.

Turning to CRID, the “one-hybrid fitness for binding parS DNA” value was ≤ 0.2. The figure for AIWG is ≤ 0.2; for MAPF it is ≤ 0.2; for VEKK it is ≤ 0.2. With QVNM, the “one-hybrid fitness for binding parS DNA” value is ≤ 0.2. For RAQG, the “one-hybrid fitness for binding parS DNA” value came out at 1.

Take PIRT: the “one-hybrid fitness for binding parS DNA” value is ≤ 0.2. The figure for DFNY is ≤ 0.2; for NIVS it is ≤ 0.2; for EVKC it is ≤ 0.2. On to WVVS, for which the “one-hybrid fitness for binding parS DNA” value is ≤ 0.2. On to NPFS, for which the “one-hybrid fitness for binding parS DNA” value is ≤ 0.2.

Consider RDYC, for which the “one-hybrid fitness for binding parS DNA” value was ≤ 0.2.

Take NRLI: the “one-hybrid fitness for binding parS DNA” value is ≤ 0.2. Next, MIYY: ≤ 0.2. Regarding RLEQ, the “one-hybrid fitness for binding parS DNA” value was ≤ 0.2. Turning to VSEM, the “one-hybrid fitness for binding parS DNA” value was ≤ 0.2. As for TWPS, the “one-hybrid fitness for binding parS DNA” value is ≤ 0.2.

For the variant MYTT, the “one-hybrid fitness for binding parS DNA” value is ≤ 0.2. The figure for VPQT is ≤ 0.2. The figure for ELGN is ≤ 0.2; for QGPK it is ≤ 0.2. The figure for CKTS is ≤ 0.2; for QFSF it is ≤ 0.2. Regarding AYCL, the “one-hybrid fitness for binding parS DNA” value is ≤ 0.2. As to ELEV, the “one-hybrid fitness for binding parS DNA” value was ≤ 0.2. In the case of AELD, the “one-hybrid fitness for binding parS DNA” value was ≤ 0.2. With RFFF, the “one-hybrid fitness for binding parS DNA” value was ≤ 0.2.

For the variant PMAK, the “one-hybrid fitness for binding parS DNA” value was ≤ 0.2. Consider AGQI, for which the “one-hybrid fitness for binding parS DNA” value is ≤ 0.2. Next, QNNE: ≤ 0.2; KSWC: ≤ 0.2; PITP: ≤ 0.2. Next, FQCR: ≤ 0.2; NEKG: ≤ 0.2. The figure for LFCV is ≤ 0.2. With FLIY, the “one-hybrid fitness for binding parS DNA” value is ≤ 0.2.

VPEQ: the “one-hybrid fitness for binding parS DNA” value was ≤ 0.2. In the case of HCTQ, the “one-hybrid fitness for binding parS DNA” value is ≤ 0.2.

Consider PEVV, for which the “one-hybrid fitness for binding parS DNA” value is ≤ 0.2. As for ETQY, the “one-hybrid fitness for binding parS DNA” value was ≤ 0.2. In the case of RWMA, the “one-hybrid fitness for binding parS DNA” value amounted to 0.287.

In the case of FDLR, the “one-hybrid fitness for binding parS DNA” value was ≤ 0.2. As for ESSY, the “one-hybrid fitness for binding parS DNA” value is ≤ 0.2. Consider QCCF, for which the “one-hybrid fitness for binding parS DNA” value was ≤ 0.2. The figure for RTDY is 0.437; for NWPM it is ≤ 0.2. The figure for RAMM is 0.318; for EAAC it is ≤ 0.2. For the variant DIAW, the “one-hybrid fitness for binding parS DNA” value was ≤ 0.2.

Regarding VLPL, the “one-hybrid fitness for binding parS DNA” value was ≤ 0.2.

As for ARKG, the “one-hybrid fitness for binding parS DNA” value is ≤ 0.2. Next, GKDG: ≤ 0.2; DLIG: ≤ 0.2. Consider YPVR, for which the “one-hybrid fitness for binding parS DNA” value was ≤ 0.2. Next, RKQY: 0.4. Turning to VPLH, the “one-hybrid fitness for binding parS DNA” value is ≤ 0.2. The figure for RVAH is 0.225; for PDRV it is ≤ 0.2.

Take CPVC: the “one-hybrid fitness for binding parS DNA” value was ≤ 0.2. The figure for KVCE is ≤ 0.2; for FPYT it is ≤ 0.2. Regarding KTTT, the “one-hybrid fitness for binding parS DNA” value was ≤ 0.2. On to VPWG, for which the “one-hybrid fitness for binding parS DNA” value is ≤ 0.2.

Turning to QRMD, the “one-hybrid fitness for binding parS DNA” value was ≤ 0.2. The figure for RNRI is ≤ 0.2. With KKDL, the “one-hybrid fitness for binding parS DNA” value was ≤ 0.2. With ATGT, the “one-hybrid fitness for binding parS DNA” value is ≤ 0.2. The figure for KLMY is ≤ 0.2; for RPPY it is ≤ 0.2; for CGGA it is ≤ 0.2. Take WLAS: the “one-hybrid fitness for binding parS DNA” value is ≤ 0.2. The figure for LRCC is ≤ 0.2; for MAPI it is ≤ 0.2; for THHI it is ≤ 0.2.

With MIAG, the “one-hybrid fitness for binding parS DNA” value was ≤ 0.2. Next, NVTK: ≤ 0.2; QCLK: ≤ 0.2; KEGL: ≤ 0.2. With HGWG, the “one-hybrid fitness for binding parS DNA” value was ≤ 0.2. As to QFAG, the “one-hybrid fitness for binding parS DNA” value was ≤ 0.2. Turning to LYVT, the “one-hybrid fitness for binding parS DNA” value is ≤ 0.2.

For the variant QTQW, the “one-hybrid fitness for binding parS DNA” value was ≤ 0.2. The figure for LNLV is ≤ 0.2. The figure for IHDR is ≤ 0.2; for DNAG it is ≤ 0.2.

TYTF: the “one-hybrid fitness for binding parS DNA” value is ≤ 0.2. Next, RSLQ: ≤ 0.2; TEAT: ≤ 0.2.
